Test results as given in the supplement of paper PMC3334620.
In all, about 33,000 sequences were measured (“E-score (-0.5 to 0.5)”: median about -0.056, highest 2% from about 0.38 on). This is one part of the list.

These sequences were tested against Stb4 (UniProt P50104) (assay: PBM E-score (8-mer binding enrichment) (E-score (-0.5 to 0.5)); higher = stronger / more preferred TF binding; most listed sequences are background and not binding sites). Details: protein concentration: 200 nM; construct: GST-DNA-binding domain.
Method in brief: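 PURExpress in vitro transcription/translation supplied GST-tagged yeast transcription factors, either full-length or DNA-binding domain. Applied at about 100-200 nM to universal all-10-mer Agilent arrays double-stranded by primer extension, the bound protein was detected with fluorescent anti-GST. E-scores, modified Wilcoxon-Mann-Whitney statistics, were given by the Universal PBM Analysis Suite to ungapped eight-base words pooled with their reverse complements after masliner normalisation.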

| Sequence | PBM E-score |
| --- | --- |
| AATGGTAT | -0.135 |
| AGACACGC | 0.0426 |
| GTAACTCA | -0.151 |
| GAGACGCC | 0.0569 |
| ACCAAATG | -0.0369 |
| ACCCTAGT | -0.302 |
| CGAAACAA | 0.149 |
| GTCATGAC | -0.0706 |
| AAGAGCGA | -0.264 |
| GCAATCCA | -0.0919 |
| GAAACTCA | 0.0867 |
| CGTGGCCC | -0.0532 |
| AATCTCGA | -0.0861 |
| CGGATAAG | 0.41 |
| CGACTGCG | 0.0315 |
| GGGGTGCA | 0.0814 |
| ACCATATA | -0.114 |
| ACTCGGAA | 0.47 |
| ACAACCGC | 0.0664 |
| TTCAGCAA | -0.302 |
| CCCCAATC | -0.165 |
| TATCGGCA | 0.326 |
| ATTTCGAC | -0.121 |
| GGGCCCAC | -0.0293 |
| ACCGCTCA | -0.0664 |

| Sequence | PBM E-score |
| --- | --- |
| AATTTGAT | -0.106 |
| CGTCGCTC | -0.0193 |
| CGGGAGTA | 0.374 |
| GCAACAGC | -0.0897 |
| GTCCTTTA | 0.142 |
| CGCGCCAG | 0.104 |
| GGCGGGAC | 0.188 |
| ACCTCGTC | -0.0708 |
| ACGTAGAT | -0.0311 |
| GATTCCAC | 0.1 |
| AGGACCAC | -0.134 |
| CACAAAGA | -0.0857 |
| GGCTTCGA | -0.0759 |
| GGTGGAAA | -0.104 |
| GTGCCTCA | -0.0701 |
| GGATAATA | 0.316 |
| GTCGCAAC | -0.0824 |
| CTAACATA | -0.0293 |
| AAAGATTC | -0.0091 |
| AAGGTGAC | -0.211 |
| CACGCGGC | 0.0138 |
| CTCTGTTC | -0.0532 |
| CTAGAAAA | 0.143 |
| CGATGGGC | -0.00861 |
| CAATACTC | -0.0419 |

| Sequence | PBM E-score |
| --- | --- |
| ATGAGCTC | 0.0633 |
| AAGGACAC | -0.109 |
| ACTGTCGC | -0.0414 |
| GGTAAAAA | 0.14 |
| TCTGATAA | -0.186 |
| TATCCAAA | -0.184 |
| GCTAAAGA | -0.0599 |
| GAAGCTCC | 0.158 |
| CATACAGC | -0.216 |
| CCCAAGCA | -0.138 |
| GCTCCAGC | -0.135 |
| GGGAGCAA | 0.103 |
| AGTCGTAA | 0.134 |
| GCCACGGC | 0.0883 |
| GGCACGGA | 0.266 |
| CTCTTGTA | -0.149 |
| CCTCTCTA | -0.182 |
| GGGTACAC | 0.105 |
| GCGCGTGA | -0.0758 |
| AAAACCAC | 0.0917 |
| GACGCTTA | -0.235 |
| ACACTAGG | -0.167 |
| CTCCATAC | -0.0631 |
| GAATCTAA | 0.118 |
| CATCCTAC | -0.206 |

| Sequence | PBM E-score |
| --- | --- |
| AGCCACTG | -0.119 |
| AAAGGAAT | 0.00595 |
| AGCTGGCC | -0.0691 |
| GCGATTTA | -0.105 |
| GATAGGGC | -0.0772 |
| CCCCCGAA | 0.297 |
| GCCGGAAA | 0.401 |
| CTAAGGAG | -0.246 |
| CCCGTATC | 0.232 |
| TAGTCACA | -0.159 |
| GGTTGCAC | -0.084 |
| GAGCCTCA | -0.256 |
| ACGGCTAT | 0.226 |
| GGGCTCGA | -0.205 |
| AAAATTGG | -0.215 |
| CCGTTGTC | 0.151 |
| CTGGTTGC | -0.0148 |
| GAATTAAC | 0.0265 |
| CAGTAGAC | -0.0882 |
| GGTGGTTA | 0.202 |
| AACACAGA | -0.0514 |
| CACGGCGC | 0.0731 |
| ACTCGGTA | 0.322 |
| AAGATCAG | -0.145 |
| TAGCCCTA | -0.0989 |

| Sequence | PBM E-score |
| --- | --- |
| CCTATTCG | 0.0717 |
| CGCGCAGC | -0.00067 |
| CTCTGATA | -0.109 |
| GAGCACGC | -0.0411 |
| AAAGTCGA | -0.197 |
| ACCGTCTA | 0.053 |
| AACACGCT | -0.031 |
| AATCATAC | 0.0264 |
| CTGTGTCC | -0.253 |
| CTTTTCTC | -0.21 |
| ACTCTAGC | -0.253 |
| ATAGAAAT | 0.0639 |
| CGACTATC | 0.0582 |
| ATCCCCAA | -0.223 |
| TAGGGCGA | -0.254 |
| CAAGTCTA | -0.0754 |
| TAATGAGA | -0.143 |
| CCTGGTCC | -0.116 |
| CCCTCCGA | 0.264 |
| AGTGATTA | -0.0427 |
| AATCTGAC | -0.203 |
| CATACTTA | -0.179 |
| GGCTCTCA | -0.0898 |
| GCTTTGCA | -0.0503 |
| CTGGCGCA | -0.219 |

| Sequence | PBM E-score |
| --- | --- |
| CTTACGGC | 0.0694 |
| CCGTCCTC | 0.207 |
| AACCTTTA | -0.013 |
| AAACCGGA | 0.284 |
| AACACCCC | 0.0426 |
| CTTTTAGA | -0.0842 |
| CCAAGTAA | -0.146 |
| GTGCCCAC | -0.134 |
| CCCCCGCC | 0.0528 |
| GACACAGC | -0.135 |
| GACGAGTA | -0.167 |
| AGAGTTAT | -0.155 |
| AGGGTGGA | -0.211 |
| ACTTACGA | -0.00707 |
| CAGTGTAG | -0.047 |
| ATAACCTC | -0.00927 |
| ATAGTATG | 0.00469 |
| CACCCGCC | 0.311 |
| TAGGAGGA | -0.193 |
| CCCTGGCA | 0.0575 |
| ACCTCAAA | -0.0898 |
| CGGGAAGC | 0.299 |
| GGAACTAC | 0.0741 |
| GAAAAACA | 0.0163 |
| ATATCAAC | -0.0196 |

| Sequence | PBM E-score |
| --- | --- |
| GCTCACAA | -0.133 |
| ATATATAT | 0.164 |
| CGTCCAAC | -0.124 |
| CTAGGCTC | -0.143 |
| ACCGCGTG | 0.053 |
| AAGACACA | -0.248 |
| GTCCCGAA | 0.406 |
| ACCGGGTA | 0.381 |
| AAATATCT | 0.0386 |
| CAGCATGA | -0.235 |
| CCATCATC | -0.0258 |
| AACGCTAG | -0.0743 |
| ACGTCTCT | -0.0846 |
| CGATGTCA | -0.0953 |
| TCCAGGCA | -0.203 |
| AGAACGAG | -0.128 |
| CCGAGCCA | 0.407 |
| AAGTGATC | -0.0657 |
| CTCGGTCA | 0.258 |
| TCAGGAAA | -0.248 |
| ATATTGGA | -0.0099 |
| GATTACGC | -0.0242 |
| TAGTGGGA | -0.0408 |
| ACCCGGGG | 0.254 |
| AGCGAAAG | -0.193 |

| Sequence | PBM E-score |
| --- | --- |
| AGACAATA | -0.123 |
| ACCGCTAA | 0.0108 |
| CATTATCA | -0.211 |
| GCGAGAGC | 0.0542 |
| AATTTAAT | 0.0138 |
| AATTTGCT | -0.0945 |
| CAAATGCA | -0.226 |
| GCAAATGA | -0.234 |
| CGAAAGAG | -0.0204 |
| TAGTATGA | -0.147 |
| ACATAGGT | -0.359 |
| GCATCATA | -0.141 |
| GACCAACA | -0.0334 |
| ATAGAAGA | -0.11 |
| TCATAGAA | -0.0472 |
| GACGATAC | -0.0335 |
| AGAGCCCC | -0.0505 |
| CCACATAC | -0.1 |
| ACACTTGA | -0.222 |
| GAAAGTAC | 0.209 |
| AGAGCGAG | -0.121 |
| CCTACGCC | -0.243 |
| GTAGACGA | -0.216 |
| ACACACCA | -0.169 |
| ATCACGCC | -0.0303 |

| Sequence | PBM E-score |
| --- | --- |
| GAGAACAC | -0.0355 |
| CGCCATAA | -0.0429 |
| GAACCACA | -0.0151 |
| TCGAAGCA | -0.0986 |
| ATAAGTCC | -0.0143 |
| ACCCAGAT | -0.0868 |
| CGGACGTC | 0.14 |
| GACGTGAC | -0.254 |
| GGAGCGAA | -0.00881 |
| ATGGCATC | -0.0882 |
| AGATTTCA | -0.114 |
| ATCTATTC | -0.0366 |
| GTATTTGA | -0.144 |
| TATTAAGA | -0.127 |
| CGTCGCAC | 0.0436 |
| ACGGGATG | 0.146 |
| CCTGTTCC | 0.0703 |
| GGGCAGTA | 0.00283 |
| GGGTCACA | -0.0305 |
